# Data published in the supplement of paper PMC8728848.
# Some of the results follow.
# B1: rAAL-H59Q (Agrocybe aegerita), Q6WY08 (protein)
# chain: MQGVNIYNISAGTSVDLAAPVTTGDIVTFFSSALNLNAGAGNPNNTTLNLFAENGAYLLQIAFRLQENVIIFNSRQPDGPWLVEQRVSDVANQFAGIDGKAMVTVFDHGDKYQVVINEKTVIQYTKQISGLTLSLSYNATEETSIFSTVVEAVTYTGLALEHHHHHH
# Legend:
# Experiment in all cases: glycan array binding signal (z-score within array); higher = stronger binding
# Conditions in all cases: glycan notation: IUPAC condensed, linker removed; mutation: H59Q
# [1] = molecular target: Neu5Ac(a2-6)GlcNAc(b1-4)GlcNAc
# Outline: (§1)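 From the Consortium for Functional Glycomics database, 3228 arrays were curated, keeping only those whose protein sequence was available. Binding is given as a within-array Z-score averaged across arrays sharing a protein sequence and across linkers. Negative Z-scores can be read as non-binding.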
# [2] = molecular target: Neu5Ac(a2-6)GlcNAc(b1-4)GlcNAc(b1-4)GlcNAc
# Outline: as §1
# [3] = molecular target: Neu5Ac(a2-8)Neu5Ac
# Outline: as §1
# [4] = molecular target: Neu5Ac(a2-8)Neu5Ac(a2-3)Gal(b1-3)GalNAc(b1-4)[Neu5Ac(a2-3)]Gal(b1-4)Glc
# Outline: as §1
# [5] = molecular target: Neu5Ac(a2-8)Neu5Ac(a2-3)Gal(b1-3)GalNAc(b1-4)[Neu5Ac(a2-8)Neu5Ac(a2-3)]Gal(b1-4)Glc
# Outline: as §1
# [6] = molecular target: Neu5Ac(a2-8)Neu5Ac(a2-3)Gal(b1-4)Glc
# Outline: as §1
# [7] = molecular target: Neu5Ac(a2-8)Neu5Ac(a2-3)Gal(b1-4)GlcNAc
# Outline: as §1
# [8] = molecular target: Neu5Ac(a2-8)Neu5Ac(a2-3)[Gal(b1-3)GalNAc(b1-4)]Gal(b1-4)Glc
# Outline: as §1
# [9] = molecular target: Neu5Ac(a2-8)Neu5Ac(a2-3)[GalNAc(b1-4)]Gal(b1-4)Glc
# Outline: as §1
# [10] = molecular target: Neu5Ac(a2-8)Neu5Ac(a2-8)Neu5Ac
# Outline: as §1
# [11] = molecular target: Neu5Ac(a2-8)Neu5Ac(a2-8)Neu5Ac(a2-3)Gal(b1-4)Glc
# Outline: as §1
# [12] = molecular target: Neu5Ac(a2-8)Neu5Ac(a2-8)Neu5Ac(a2-3)[Gal(b1-3)GalNAc(b1-4)]Gal(b1-4)Glc
# Outline: as §1
# [13] = molecular target: Neu5Ac(a2-8)Neu5Ac(a2-8)Neu5Ac(a2-3)[GalNAc(b1-4)]Gal(b1-4)Glc
# Outline: as §1
# [14] = molecular target: Neu5Ac(a2-8)Neu5Ac(a2-8)Neu5Ac(a2-8)Neu5Ac(a2-3)[GalNAc(b1-4)]Gal(b1-4)Glc
# Outline: as §1
# [15] = molecular target: Neu5Ac(a2-8)Neu5Gc(a2-3)Gal(b1-4)GlcNAc
# Outline: as §1
# [16] = molecular target: Neu5Ac(b2-6)Gal(b1-4)GlcNAc
# Outline: as §1
# [17] = molecular target: Neu5Ac(b2-6)GalNAc
# Outline: as §1
# [18] = molecular target: Neu5Ac9Ac(a2-3)Gal(b1-3)GlcNAc
# Outline: as §1
# [19] = molecular target: Neu5Ac9Ac(a2-3)Gal(b1-4)GlcNAc
# Outline: as §1
# [20] = molecular target: Neu5Ac9Ac(a2-6)Gal(b1-4)GlcNAc
# Outline: as §1
# [21] = molecular target: Neu5Gc(a2-3)Gal(b1-3)GlcNAc
# Outline: as §1
# [22] = molecular target: Neu5Gc(a2-3)Gal(b1-3)[Fuc(a1-4)]GlcNAc
# Outline: as §1
# [23] = molecular target: Neu5Gc(a2-3)Gal(b1-4)Glc
# Outline: as §1
# [24] = molecular target: Neu5Gc(a2-3)Gal(b1-4)GlcNAc
# Outline: as §1
# [25] = molecular target: Neu5Gc(a2-3)Gal(b1-4)GlcNAc(b1-3)Gal(b1-4)GlcNAc(b1-2)Man(a1-3)[Neu5Gc(a2-3)Gal(b1-4)GlcNAc(b1-3)Gal(b1-4)GlcNAc(b1-2)Man(a1-6)]Man(b1-4)GlcNAc(b1-4)GlcNAc
# Outline: as §1
# [26] = molecular target: Neu5Gc(a2-3)Gal(b1-4)[Fuc(a1-3)]GlcNAc
# Outline: as §1
# [27] = molecular target: Neu5Gc(a2-6)Gal(b1-4)GlcNAc
# Outline: as §1
# [28] = molecular target: Neu5Gc(a2-6)GalNAc
# Outline: as §1
# [29] = molecular target: Neu5Gc(a2-8)Neu5Ac(a2-3)Gal(b1-4)GlcNAc
# Outline: as §1
# [30] = molecular target: Neu5Gc(a2-8)Neu5Gc(a2-3)Gal(b1-4)GlcNAc
# Outline: as §1
# [31] = molecular target: Neu5Gc(a2-8)Neu5Gc(a2-3)Gal(b1-4)GlcNAc(b1-3)Gal(b1-4)GlcNAc
# Outline: as §1
# [32] = molecular target: Neu5Gc(a2-8)Neu5Gc(a2-6)Gal(b1-4)GlcNAc
# Outline: as §1
# [33] = molecular target: Neu5Gc(b2-6)Gal(b1-4)GlcNAc
# Outline: as §1
binder,measurement,setting,value
B1,glycan array binding signal (z-score),[1],-0.051
same,glycan array binding signal (z-score),[2],-0.083
same,glycan array binding signal (z-score),[3],-0.102
same,glycan array binding signal (z-score),[4],-0.109
same,glycan array binding signal (z-score),[5],-0.103
same,glycan array binding signal (z-score),[6],-0.147
same,glycan array binding signal (z-score),[7],-0.136
same,glycan array binding signal (z-score),[8],-0.079
same,glycan array binding signal (z-score),[9],-0.006
same,glycan array binding signal (z-score),[10],-0.081
same,glycan array binding signal (z-score),[11],-0.101
same,glycan array binding signal (z-score),[12],-0.054
same,glycan array binding signal (z-score),[13],-0.025
same,glycan array binding signal (z-score),[14],-0.054
same,glycan array binding signal (z-score),[15],-0.172
same,glycan array binding signal (z-score),[16],-0.083
same,glycan array binding signal (z-score),[17],-0.125
same,glycan array binding signal (z-score),[18],-0.055
same,glycan array binding signal (z-score),[19],-0.081
same,glycan array binding signal (z-score),[20],-0.114
same,glycan array binding signal (z-score),[21],-0.092
same,glycan array binding signal (z-score),[22],-0.13
same,glycan array binding signal (z-score),[23],-0.163
same,glycan array binding signal (z-score),[24],-0.129
same,glycan array binding signal (z-score),[25],0.041
same,glycan array binding signal (z-score),[26],-0.09
same,glycan array binding signal (z-score),[27],-0.138
same,glycan array binding signal (z-score),[28],-0.145
same,glycan array binding signal (z-score),[29],-0.054
same,glycan array binding signal (z-score),[30],-0.039
same,glycan array binding signal (z-score),[31],-0.122
same,glycan array binding signal (z-score),[32],-0.072
same,glycan array binding signal (z-score),[33],-0.027
